# Test results from publication PMC7645679.
# Results are given in words; binding and its absence hold for the method and conditions named. Tags and fused reporters may be left off the sequences shown.
# T1: CTCF ΔN(13–33), GFP fusion (F3H) (mouse), Q61164
# T1 chain: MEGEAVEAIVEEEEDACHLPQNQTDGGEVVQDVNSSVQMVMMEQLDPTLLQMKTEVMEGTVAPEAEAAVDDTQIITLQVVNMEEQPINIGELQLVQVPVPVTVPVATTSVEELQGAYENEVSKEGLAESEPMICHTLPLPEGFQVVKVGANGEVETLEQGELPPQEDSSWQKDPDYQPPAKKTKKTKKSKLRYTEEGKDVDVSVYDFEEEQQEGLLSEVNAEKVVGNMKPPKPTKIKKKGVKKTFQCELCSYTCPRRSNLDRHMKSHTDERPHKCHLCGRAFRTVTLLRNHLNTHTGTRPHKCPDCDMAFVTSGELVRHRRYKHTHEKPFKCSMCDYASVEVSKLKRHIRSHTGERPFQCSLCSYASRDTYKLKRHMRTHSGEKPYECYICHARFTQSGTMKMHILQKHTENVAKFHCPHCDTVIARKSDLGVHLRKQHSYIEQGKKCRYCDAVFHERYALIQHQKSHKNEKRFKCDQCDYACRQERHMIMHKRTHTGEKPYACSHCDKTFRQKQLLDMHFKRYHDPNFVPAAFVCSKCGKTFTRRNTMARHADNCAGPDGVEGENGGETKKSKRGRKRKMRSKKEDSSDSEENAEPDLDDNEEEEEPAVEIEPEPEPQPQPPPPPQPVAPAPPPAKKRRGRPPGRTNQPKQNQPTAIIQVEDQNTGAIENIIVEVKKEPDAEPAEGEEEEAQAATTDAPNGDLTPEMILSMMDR
# Biological target: T1, CTCF ΔN(13–33), GFP fusion (F3H) …
# Experiment: fluorescent three-hybrid (F3H); GFP-tagged bait tethered to a LacO array by GFP nanobody–LacR in BHK-LacO cells; recruitment of mKate2-tagged prey read as Pearson correlation of green and red channels at the array; cells fixed 24 h after transfection
# Details: remark: other sources report otherwise
binder,measurement,value
"PDS5A (mouse), mKate2 fusion, Q6A026 1-1332 (protein) MDFTQPKPATALCGVVSADGKIAYPPGVKEITDKITTDEMIKRLKMVVKTFMDMDQDSEDEKQQYLPLALHLASEFFLRNPNKDVRLLVACCLADIFRIYAPEAPYTSHDKLKDIFLFITRQLKGLEDTKSPQFNRYFYLLENLAWVKSYNICFELEDCNEIFIQLFRTLFSVINNSHNTKVQMHMLDLMSSIIMEGDGVTQELLDSILINLIPAHKNLNKQSFDLAKVLLKRTVQTIEACIANFFNQVLVLGRSSVSDLSEHVFDLIQELFAIDPQLLLSVMPQLEFKLKSNDGEERLAVVRLLAKLFGSKDSDLATQNRPLWQCFLGRFNDIHVPVRLESVKFASHCLMNHPDLAKDLTEYLKVRSHDPEEAIRHDVIVTIITAAKRDLALVNDQLLGFVRERTLDKRWRVRKEAMMGLAQLYKKYCLHGEAGKEAAEKVSWIKDKLLHIYYQNSIDDKLLVEKIFAQYLVPHNLETEERMKCLYYLYASLDPNAVKALNEMWKCQNMLRSHVRELLDLHKQPTSEANCSAMFGKLMTIAKNLPDPGKAQDFVKKFNQVLGDDEKLRSQLELLISPTCSCKQADVCVREIARKLANPKQPTNPFLEMVKFLLERIAPVHIDSEAISALVKLMNKSIEGTADDEEEGVSPDSAIRSGLELLKVLSFTHPTSFHSAETYESLLQCLRMEDDKVAEAAIQIFRNTGHKIETDLPQIRSTLIPILHQKAKRGTPHQAKQAVHCIHAIFSNKEVQLAQIFEPLSRSLNADVPEQLITPLVSLGHISMLAPDQFASPMKSVVANFIVKDLLMNDRSTGEKNGKLWSPDEEVSPEVLAKVYLLRLLVRWLLGMKNNQSKSANSTLRLLSAMLVSEGDLTEQKRISKSDMSRLRLAAGSAIMKLAQEPCYHEIITPEQFQLCALVINDECYQVRQIFAQKLHKALVKLLLPLEYMAIFALCAKDPVKERRAHARQCLLKNISIRREYIKQNPMATEKLLSLLPEYVVPYMIHLLAHDPDFTRSQDVDQLRDIKECLWFMLEVLMTKNENNSHAFMKKMAENIKLTRDAQSPDESKTNEKLYTVCDVALCVINSKSALCNADSPKDPVLPMKFFTQPEKDFCNDKSYISEETRVLLLTGKPKPTGVLGTVNKPLSATGRKPYVRSAGTETGSNINANSELSPSAGSRSREQSSEASETGVSENEENPVRIISVTPVKNIDTVKNKEINSDQSTQGNISSDRGKKRIVTAAGAENIQKPDEKVDESGPPAPSKPRRGRRPKSESQGNATKNDDLNKPVSKGRKRAAGSQESLEAGNAKAPKLQDGAKKAVPAERQIDLQR",binding,no binding
